Results taken from ChEMBL document CHEMBL5724801, “EUbOPEN Chemogenomics Library - Multiplex” (2024).
For part of its entries the source gives two or more results. The other results are left out here. There may be further records. Values given together are repeated measurements across runs, samples, wells, individuals or studies.

Tests used:
Type in all cases: toxicity, cell-based
Fibroblast = assay: Multiplex assay against human fibroblast
How it was run: (§1)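 Values for tubulin, mitochondrial-mass and membrane-permeability phenotypes are per cents of cells with healthy nuclei. These cells were identified by CellPathfinder machine-learning gating of live cells that had been stained at seeding with Hoechst33342, BioTracker Green Microtubule Cytoskeleton Dye, MitoTracker Red and Annexin V Alexa Fluor 680 and imaged on a CQ1 microscope at 37°C and 5% CO2 after compound addition. The gating first set Hoechst high-intensity objects apart from normal cells, then split normal cells into healthy, pyknosed or fragmented nuclei, and pyknosed cells into mitotic or apoptotic.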

U2OS = assay: Multiplex assay against U2OS; conditions: human; how it was run: as §1
HEK-293T = assay: Multiplex assay against HEK293T; conditions: human; how it was run: as §1
[1] = 48 h, 10 µM, compound concentration 10 uM
[2] = 12 h, 1 µM, compound concentration 1 uM
[3] = 12 h, 10 µM, compound concentration 10 uM
[4] = 24 h, 10 µM, compound concentration 10 uM
[5] = 48 h, 1 µM, compound concentration 1 uM
[6] = 24 h, 1 µM, compound concentration 1 uM

With `Cc1ccccc1C(=O)Nc1ccc(C(=O)N2CCCC(N(C)C)c3ccccc32)cc1.Cl` (stereo unspecified) the “Population Mitotic Cells (%)” value (Fibroblast; [1]) was 8% and 26% and the “Population Mitochondria Different-Phenotype (%)” value (U2OS; [1]) was 8% and 30%.

For `O=C1NC(NC23CC4CC(CC(C4)C2)C3)=N/C1=C\c1ccc2ncsc2c1`, the “Population Healthy Nuclei (%)” value (HEK-293T; [2]) was 28.22% and 9.29%, the “Population Hoechst High Intensity Objects (%)” value (U2OS; [3]) was 47.97% and 15.68% and the “Population Hoechst High Intensity Objects (%)” value (U2OS; [4]) was 39.89% and 13.1%. For the same molecule, the “Population Pyknosed Nuclei (%)” value (U2OS; [4]) was 23.61% and 6.78%, the “Population Pyknosed Nuclei (%)” value (U2OS; [5]) was 5.32% and 21.47% and the “Population Pyknosed Nuclei (%)” value (U2OS; [1]) was 28.45% and 8.17%.

`C=CC(=O)N1CCC[C@@H](n2nc(C(=O)Nc3ccc(CC(=O)N(C)C)c(C)c3C)c3c(N)ncnc32)C1` was tested, and the “Population Apoptotic (%)” value (Fibroblast; [2]) was 2.9% and 20%, the “Population Apoptotic (%)” value (Fibroblast; [4]) was 5% and 15.38% and the “Population Mitochondria Different-Phenotype (%)” value (Fibroblast; [5]) was 14.56% and 2.72%. For the same molecule, the “Population Membrane Permeable-Phenotype (%)” value (U2OS; [3]) was 1.33% and 11.46%, the “Population Mitochondria Different-Phenotype (%)” value (U2OS; [3]) was 0.27% and 10.83% and the “Population Mitochondria Different-Phenotype (%)” value (U2OS; [4]) was 0.84% and 10.99%.

In the case of `Cc1c(-c2cc(-c3ccccc3Cl)no2)cnn1C1CCNCC1.Cl`, the “Population Apoptotic (%)” value (Fibroblast; [2]) is reported as 6.56% and 31.43%, the “Population Membrane Permeable-Phenotype (%)” value (Fibroblast; [1]) is reported as 5.8% and 18.42% and the “Population Mitotic Cells (%)” value (Fibroblast; [1]) is reported as 46.59% and 7.94%. The “Population Healthy Nuclei (%)” value (HEK-293T; [2]) was 53.87% and 7.3%, the “Population Healthy Nuclei (%)” value (HEK-293T; [3]) was 18.67% and 2.22% and the “Total Cell Count” value (HEK-293T; [6]) was 474 and 146. For the same molecule, the “Population Healthy Nuclei (%)” value (HEK-293T; [4]) was 19.81% and 4.79%, the “Population Pyknosed Nuclei (%)” value (HEK-293T; [5]) was 13.9% and 42.48% and the “Population Tubulin-Different-Phenotype (%)” value (HEK-293T; [5]) was 4.54% and 69.05%. For the same molecule, the “Total Cell Count” value (HEK-293T; [5]) was 1036 and 155, the “Population Healthy Nuclei (%)” value (HEK-293T; [1]) was 42.92% and 3.7% and the “Population Mitotic Cells (%)” value (HEK-293T; [1]) was 40.3% and 12.16%. For the same molecule, the “Population Mitochondria Different-Phenotype (%)” value (U2OS; [3]) was 5.98% and 51.85%, the “Population Mitochondria Different-Phenotype (%)” value (U2OS; [4]) was 6.77% and 46.43% and the “Population Healthy Nuclei (%)” value (U2OS; [1]) was 43.31% and 8.7%. The “Population Membrane Permeable-Phenotype (%)” value (U2OS; [1]) was 29.32% and 8.33%, the “Population Mitochondria Different-Phenotype (%)” value (U2OS; [1]) was 5.76% and 50% and the “Population Mitotic Cells (%)” value (U2OS; [1]) was 40.57% and 4.07%. For the same molecule, the “Total Cell Count” value (U2OS; [1]) was 444 and 138.

`COC(c1ccccc1)(c1ccccc1)[C@H](Oc1nc(C)cc(C)n1)C(=O)O` [AMBRISENTAN] was tested, and the “Population Fragmented Nuclei (%)” value (Fibroblast; [3]) was 8% and 39%, the “Population Fragmented Nuclei (%)” value (Fibroblast; [4]) was 12% and 46% and the “Population Fragmented Nuclei (%)” value (Fibroblast; [1]) was 14% and 50%. For the same molecule, the “Population Mitotic Cells (%)” value (U2OS; [3]) was 38% and 0%.

With `CC(C)C[C@H](CO)Nc1nc(S[C@@H](C)c2ccccc2)nc2nc(N)sc12` [AZD-8797] the “Population Membrane Permeable-Phenotype (%)” value (Fibroblast; [2]) was 3% and 16%, the “Population Mitochondria Different-Phenotype (%)” value (Fibroblast; [3]) was 6% and 27% and the “Population Membrane Permeable-Phenotype (%)” value (Fibroblast; [6]) was 1% and 17%. For the same molecule, the “Population Tubulin-Different-Phenotype (%)” value (Fibroblast; [5]) was 11% and 54%, the “Population Tubulin-Different-Phenotype (%)” value (U2OS; [3]) was 20% and 6% and the “Population Pyknosed Nuclei (%)” value (U2OS; [4]) was 21% and 6%.

`C=CCN1C[C@H](C(=O)N(CCCN(C)C)C(=O)NCC)C[C@@H]2c3cccc4[nH]cc(c34)C[C@H]21` [CABERGOLINE] was tested, and the “Population Pyknosed Nuclei (%)” value (Fibroblast; [2]) was 7% and 33%, the “Population Mitotic Cells (%)” value (U2OS; [2]) was 13% and 42% and the “Population Mitotic Cells (%)” value (U2OS; [4]) was 34% and 11%.

With `CC1(COc2ccc3c(c2)ncn3-c2ccc3cccc(N4CCC(N)CC4)c3n2)COC1` [CRENOLANIB] the “Population Apoptotic (%)” value (Fibroblast; [2]) was 61% and 18%, the “Population Mitotic Cells (%)” value (Fibroblast; [6]) was 7% and 50% and the “Population Apoptotic (%)” value (Fibroblast; [5]) was 75% and 20%. For the same molecule, the “Population Mitotic Cells (%)” value (Fibroblast; [5]) was 25% and 80% and the “Population Mitotic Cells (%)” value (U2OS; [5]) was 12% and 37%.

In the case of `Cc1cc(NC(=O)NCCN2CCC(O)(Cc3ccccc3)CC2)c2ccccc2n1` [PALOSURAN], the “Population Mitochondria Different-Phenotype (%)” value (Fibroblast; [2]) is reported as 1% and 13%, the “Population Membrane Permeable-Phenotype (%)” value (Fibroblast; [6]) is reported as 1% and 14% and the “Population Tubulin-Different-Phenotype (%)” value (Fibroblast; [6]) is reported as 17% and 62%. For the same molecule, the “Population Mitochondria Different-Phenotype (%)” value (Fibroblast; [5]) was 2% and 14%, the “Population Tubulin-Different-Phenotype (%)” value (Fibroblast; [5]) was 15% and 61% and the “Population Mitotic Cells (%)” value (U2OS; [6]) was 5% and 33%. The “Population Mitotic Cells (%)” value (U2OS; [4]) was 8% and 25% and the “Population Mitotic Cells (%)” value (U2OS; [5]) was 3% and 16%.

For `C[C@H](NC(=O)c1c(C(F)F)nn(C)c1Oc1cccc(C(F)(F)F)c1)c1ccc(C(=O)O)cc1` [PALUPIPRANT], the “Population Fragmented Nuclei (%)” value (Fibroblast; [3]) was 13% and 42%, the “Population Hoechst High Intensity Objects (%)” value (Fibroblast; [3]) was 2% and 14% and the “Population Membrane Permeable-Phenotype (%)” value (Fibroblast; [3]) was 2% and 13%. The “Population Tubulin-Different-Phenotype (%)” value (Fibroblast; [6]) was 15% and 51%, the “Population Membrane Permeable-Phenotype (%)” value (Fibroblast; [4]) was 2% and 13% and the “Population Mitotic Cells (%)” value (U2OS; [2]) was 39% and 8%.

With `O=C(NCC(=O)N1CC[C@H](N[C@H]2CC[C@@](O)(c3ccc(-c4ncccn4)cn3)CC2)C1)c1cccc(C(F)(F)F)c1` [PF-4136309] the “Population Membrane Permeable-Phenotype (%)” value (Fibroblast; [2]) was 1% and 13%, the “Population Membrane Permeable-Phenotype (%)” value (Fibroblast; [6]) was 1% and 16% and the “Population Mitotic Cells (%)” value (U2OS; [2]) was 20% and 6%. The “Population Mitotic Cells (%)” value (U2OS; [1]) was 30% and 7%.

With `CC(C)(C)c1cc(NC(=O)Nc2ccc(-c3cn4c(n3)sc3cc(OCCN5CCOCC5)ccc34)cc2)no1` [QUIZARTINIB] the “Population Mitochondria Different-Phenotype (%)” value (Fibroblast; [1]) was 25% and 6% and the “Population Fragmented Nuclei (%)” value (U2OS; [4]) was 34% and 10%.
